The campaign covered roughly 48,000 compounds. About 1,200 (2.5%) were called active. Roughly 2% stayed inconclusive and do not appear here.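 Rule for the calls: active = activation of at least 60% and not above a set upper limit (about 1 call in 100 departs from these limits); inconclusive = activation of 40% to 60%, or above that upper limit; inactive = activation under 40%.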 Some of the results follow.
molecular target: Probable G-protein coupled receptor 32 (Homo sapiens) (UniProt O75388); assay: qHTS for Agonists of Human Resolvin D1 Receptor DRV1; settings: CHO-K1 GPR32 beta-arrestin PathHunter luminescence, 90 min; at 76.9 µM; hits give high values; zero percent set by DMSO-only wells; note: 0% is about no effect
UniProt O75388, sequence (O75388 whole entry, looked up, the tested form may be a part): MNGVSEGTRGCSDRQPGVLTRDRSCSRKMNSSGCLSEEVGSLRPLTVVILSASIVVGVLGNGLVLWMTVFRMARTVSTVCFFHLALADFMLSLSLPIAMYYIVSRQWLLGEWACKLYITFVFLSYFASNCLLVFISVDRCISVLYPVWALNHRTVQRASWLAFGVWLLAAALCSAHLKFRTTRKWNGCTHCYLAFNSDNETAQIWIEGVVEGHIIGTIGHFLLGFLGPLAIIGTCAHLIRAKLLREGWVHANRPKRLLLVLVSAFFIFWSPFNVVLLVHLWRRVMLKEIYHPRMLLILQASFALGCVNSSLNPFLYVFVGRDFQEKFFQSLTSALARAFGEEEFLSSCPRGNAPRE
Method in brief: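 Agonism was scored by beta-Gal fragment complementation (chemiluminescent read, 1 h detection at ambient temperature) reporting beta-arrestin binding to GPR32 in engineered CHO-K1 cells. Compound treatment lasted 90 min at 37 C, normalized to a DMSO basal control.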

| Compound | activation |
| --- | --- |
| Cc1cc(F)ccc1S(=O)(=O)Nc1ccc2c(c1)CCCN2C(=O)c1cccs1 | inactive: 2.41% |
| CCOC(=O)Cc1ccc(NC(=O)NCc2cccn2Cc2ccccc2)cc1 | inactive: -12.7% |
| NC(=O)COCCN1CCN(C(c2ccccc2)c2ccc(Cl)cc2)CC1 (stereo not drawn) | inactive: 0.798% |
| O=C1c2[nH]nc(-c3ccccc3O)c2C(c2ccccc2F)N1Cc1ccncc1 (stereo not drawn) | inactive: 2.2% |
| Cc1ccc(NC(=O)CSc2nc(-c3cccs3)nc3cc(=O)[nH]n23)cc1 | active: 99.1% |
| COc1ccc(-n2c(=O)c3sc4ccccc4c3n(CC(=O)Nc3ccccc3F)c2=O)cc1 | inactive: -11.5% |
| CCC(Cc1ccccc1)NC(=O)Cn1ncc2c3ccccc3n(Cc3ccccc3)c2c1=O (stereo not drawn) | inactive: 39.2% |
| CCOc1ccc(C(=O)c2cn(Cc3ccc(Cl)cc3)c3cc(OC)c(OC)cc3c2=O)cc1 | inactive: 2.63% |
| CCc1nc2nc(C)cc(Nc3ccc(OC)cc3OC)n2n1 | inactive: -6.04% |
| Cc1ccc(Nc2nnc(-c3ccc(C)c(S(=O)(=O)N4CCOCC4)c3)c3ccccc23)c(C)c1 | inactive: -16.7% |
| O=C1Nc2ccccc2C1(c1ccc(O)cc1)c1ccc(O)cc1 | inactive: -1.82% |
| Cc1ccc2c(c1)NC(=O)C(CC(=O)Nc1ccccc1Cl)O2 (stereo not drawn) | inactive: -4.52% |
| CC(C)C1CCC(C(=O)N[C@H](Cc2ccccc2)C(=O)O)CC1 (stereo partly drawn) | inactive: 3.66% |
| Cc1oc(-c2ccc(Cl)cc2)nc1CN1CCC(C(=O)NCCCN2CCN(c3cccc(Cl)c3)CC2)CC1 | inactive: -2.62% |
| Cc1cc(C)n2nc(SCC(=O)Nc3ccccc3C)nc2n1 | inactive: -0.212% |
| Cc1ccc(Cl)cc1N1CCN(C(=O)c2cc(S(=O)(=O)N3CCCC3)cn2C)CC1 | inactive: -6.85% |
| CCOc1ccc(CNC(=O)C2CCN(S(=O)(=O)N3CCC(C)CC3)CC2)cc1OC | inactive: -9.2% |
| CC1=C(C(=O)Nc2cccnc2)C(c2cccc(Br)c2)n2nc(SCc3ccccc3)nc2N1 (stereo not drawn) | inactive: -3.19% |
| COc1ccc(C(=O)Nc2nc3nc(C)c(Cc4ccccc4)c(=O)n3[nH]2)cc1OC | inactive: 1.84% |
| Cc1ccc(CNC(=O)COCc2cc(-c3cccs3)on2)cc1 | inactive: -2.44% |
| CC(=O)c1cccc(NC(=O)CN2C=NS(=O)(=O)c3ccc(C)cc32)c1 | inactive: -4.65% |

| Compound | activation |
| --- | --- |
| Cc1cccc(CNS(=O)(=O)c2ccc(-c3cnc(C4CC4)o3)cc2)c1 | inactive: -14.5% |
| COc1cc(NC(=O)C2CCN(c3cnc4ccccc4n3)CC2)cc(OC)c1OC | inactive: -8.7% |
| CC1=C(C(=O)Nc2ccccc2C)C(c2ccncc2)n2nc(SCc3ccccc3Cl)nc2N1 (stereo not drawn) | inactive: -4.28% |
| CCn1c(=O)c2cc(C(=O)Nc3cc(OC)c(OC)c(OC)c3)sc2c2ccccc21 | inactive: 15.8% |
| Cn1ccc2cc(S(=O)(=O)N3CCCC(C(=O)NCc4ccccc4)C3)ccc21 (stereo not drawn) | inactive: -22% |
| COc1ccc(S(=O)(=O)Nc2cccc(-c3ccc(N4CCC(C)CC4)nn3)c2)cc1OC | inactive: -3.11% |
| Cc1cc(-c2ccc(C)c(S(=O)(=O)NC(c3cccs3)C(C)C)c2)on1 (stereo not drawn) | inactive: 12.2% |
| O=C(COc1ccc(F)cc1)OCc1cc(=O)n2nc(C3CCCCC3)sc2n1 | inactive: 24.6% |
| O=C(NCCS(=O)(=O)N1CCN(c2ccccc2)CC1)C1CC(=O)N(c2ccc(F)cc2)C1 (stereo not drawn) | inactive: -8.34% |
| COc1ccc(NC(=O)CCSc2nc(-c3ccc(OC)cc3)cc(C(F)(F)F)n2)cc1 | inactive: -12.6% |
| CC(C)CCNC(=O)c1ccc2c(c1)NC(=O)C(CS(=O)(=O)Cc1ccc(F)cc1)N2 (stereo not drawn) | inactive: -4.89% |
| Cc1ccc(NC(=O)Cn2cc(C(=O)C3CC3)c3ccccc32)c(C)c1 | inactive: -3.36% |
| CCc1nnc(SCc2c(F)cccc2Cl)c2cc3sccc3n12 | inactive: 1.44% |
| COc1ccc(C(C(=O)NCc2ccccc2)N(C(=O)Cn2nnc3ccccc32)c2cccc(OC)c2)cc1 (stereo not drawn) | inactive: -16.3% |
| CC1=C(C(=O)N2CCN(c3cc(C)ccc3C)CC2)C2(CCC(C)CC2)OC1=O (stereo not drawn) | inactive: -21.8% |
| O=C(CSc1ncc2c(n1)-c1ccc(Cl)cc1N(Cc1ccccc1)S2(=O)=O)Nc1ccc(F)c(F)c1 | inactive: -1.22% |
| COc1ccc2c(Sc3ccccc3)c(C(=O)NCCc3ccc(Cl)cc3)[nH]c2c1 | inactive: -18.4% |
| O=C(CN1C(=O)COc2ccc(S(=O)(=O)N3CCCC3)cc21)N1CCN(c2ccccc2)CC1 | inactive: -27% |
| COc1cc(OC)cc(C(=O)Nc2cc(-c3nc4cc(Cl)ccc4o3)ccc2Cl)c1 | inactive: 0.604% |
| CCN1CCN(CCCNC(=O)c2cc3c(s2)-c2ccccc2OC3)CC1 | inactive: -3.14% |
| CCOC(=O)C1CCCN(CC(=O)N2CCCc3c2c(=O)oc2ccc(OCc4ccccc4)cc32)C1 (stereo not drawn) | inactive: -1.67% |

| Compound | activation |
| --- | --- |
| CCc1ccc(NC(=O)c2sc3ncnc(N(C)C4CCCCC4)c3c2C)cc1 | inactive: -9.8% |
| O=C(NCc1ccc2c(c1)CCN2C(=O)c1ccccc1)c1cc2ccccc2[nH]1 | inactive: -9.5% |
| CC(=O)C1=C(c2ccc(C)cc2)N(C(C)=O)n2c(nnc2C2CCCCC2)S1 | inactive: -34.5% |
| COc1ccc(CNC(=O)Nc2ccc3c(c2)N(C)C(=O)c2ccccc2S3)cc1 | inactive: -19.6% |
| CCOc1ccc(C2C(C(N)=O)=C(C)Nc3nc(SCc4ccccc4)nn32)cc1 (stereo not drawn) | inactive: -3.42% |
| CCCCNC(=O)CSc1nc2ccccc2nc1Cc1ccc(C)cc1 | inactive: -2.44% |
| COc1cccc(CN2C(=O)c3ccccc3Sc3ccc(C(=O)N(C)Cc4ccccc4)cc32)c1 | inactive: -16.8% |
| O=C(c1cccs1)c1cn(CCOc2ccccc2F)c2ccccc12 | inactive: -27% |
| COc1cccc2cc(-c3nc(Nc4cccc(C)c4)sc3C)c(=O)oc12 | inactive: -18.5% |
| COc1cc(C2c3c(-c4ccccc4O)n[nH]c3C(=O)N2CCO)ccc1OCc1ccccc1 (stereo not drawn) | inactive: -3.48% |
| COc1cccc(CNC(=O)c2ccc3nc(-c4ccc(F)cc4)c(-c4ccc(F)cc4)nc3c2)c1 | inactive: -11.2% |
| CC(=O)c1cccc(NC(=O)c2nc3ccccc3n(C)c2=O)c1 | active: 62.1% |
| CC(C)c1ccc(S(=O)(=O)c2nnn3c2nc(N2CCN(C)CC2)c2sccc23)cc1 | inactive: -7.64% |
| CCOC(=O)c1ccccc1NC(=O)c1c2c(nc3ccccc13)C(=O)N(C1CCCCC1)C2 | inactive: 0.559% |
| COc1ccccc1OCC(=O)N(Cc1ccco1)Cc1ccccc1F | inactive: -8.26% |
| CC(CNC(=O)c1ccc2c(c1)nc1n2CCCCC1)c1ccccc1 (stereo not drawn) | inactive: -14.8% |
| CCOc1ccc(CC(=O)NC2CC(=O)N(c3cccc(F)c3)C2)cc1 (stereo not drawn) | inactive: -2.76% |
| O=c1cc(COc2ccc(Cl)cc2Cl)nc2scc(-c3ccccc3)n12 | inactive: 16.2% |
| CCOc1ccc(-n2c(=O)c3c(C)c(C)sc3n(CC(=O)C(C)(C)C)c2=O)cc1 | inactive: -6.62% |
| Cc1cc(NS(=O)(=O)c2ccc(NC(=O)COc3c(C)ccc(C)c3C)cc2)nc(C)n1 | inactive: 10.7% |
| Cc1ccc(C2C(=O)N(C3CCC(C)CC3)CC(=O)N2C2CCCC2)cc1 (stereo not drawn) | inactive: -16% |

| Compound | activation |
| --- | --- |
| COc1ccccc1-c1nn2c(=O)cc(CN3CCN(C(=O)Nc4ccc(C)cc4Cl)CC3)nc2s1 | inactive: 7.78% |
| COc1cc(C(=O)NCC(c2ccco2)S(=O)(=O)c2cccs2)cc(OC)c1OC (stereo not drawn) | inactive: 2.52% |
| CCc1cccc(C)c1NC(=O)c1ccc2c(c1)CCN2S(=O)(=O)c1ccc(Cl)cc1 | inactive: -18% |
| COc1ccc(CNC(=O)COCc2cc(-c3ccc4c(c3)OCO4)on2)cc1 | inactive: 1.18% |
| Cc1ccc(-n2c(=O)c3c(c4cc(C)ccc4n3C)n(CC(=O)Nc3ccc(F)cc3)c2=O)cc1 | inactive: 17% |
| CC(=O)c1ccc(N2CCN(C(=O)c3cn(C)c(=O)c4c3c3ccccc3n4C)CC2)cc1 | inactive: -2.44% |
| COCCCNc1nc2c(c(=O)n(Cc3ccc(F)cc3)c(=O)n2C)n1C | inactive: 5.71% |
| Cc1cc(C)cc(NC(=O)CCc2c(C)nc3nc(CNC(=O)c4cccc(F)c4)nn3c2C)c1 | inactive: 0.706% |
| CCCCC(=O)Nc1nnc(S(=O)(=O)N(C)Cc2ccc(Cl)cc2)s1 | inactive: 2.86% |
| COc1ccc(N(Cc2cccs2)C(=O)c2ccco2)cc1 | inactive: -15.4% |
| COc1ccc(N2CCN(S(=O)(=O)c3ccc(CC(C)C)cc3)CC2)cc1 | inactive: 16.6% |
| O=C(NCC(c1ccco1)S(=O)(=O)c1cccs1)c1ccccc1 (stereo not drawn) | inactive: -3.63% |
| COc1ccc(OC)c(S(=O)(=O)NCC(c2ccc(N(C)C)cc2)N2CCOCC2)c1 (stereo not drawn) | inactive: -8.19% |
| COC(=O)c1cc(NC(=O)c2cc3c(-c4ccccc4F)nn(C)c3s2)cc(C(=O)OC)c1 | inactive: -7.27% |
| CCOC(=O)c1cc2c(=O)n3ccccc3nc2n(Cc2ccco2)c1=NC(=O)c1ccccc1Br | inactive: -18.6% |
| COC(=O)c1cc2oc3ccccc3c2n1Cc1ccc(C)cc1 | inactive: -11.5% |
| Cc1c(Cl)cccc1Nc1nn2c(=O)c3ccccc3nc2s1 | inactive: -18.5% |
| Cc1ccccc1-c1noc(-c2ccc(NCC3CCCO3)c([N+](=O)[O-])c2)n1 (stereo not drawn) | inactive: -20.2% |
| COc1ccccc1CNC(=O)CC(c1ccc(F)cc1)N1Cc2ccccc2C1=O (stereo not drawn) | inactive: -14.2% |
| Cc1cccc(N2CCN(S(=O)(=O)c3ccc(-c4cnc(C5CC5)o4)cc3)CC2)c1C | inactive: 2.99% |

Reference: PubChem BioAssay AID1346428 (National Center for Advancing Translational Sciences (NCATS), 2018)
